# Assay results taken from PMC4336329 (PLoS ONE, 2015).
# About 14,000 (4.5%) of roughly 310,000 compounds showed an effect of 50% or more. The effect is printed as a negative number. The list shows a part of the results.
# Biological target: human ether-à-go-go-related gene (hERG) potassium channel (human, UniProt Q12809)
# Test: primary screen, population patch clamp on CHO cells stably expressing hERG
# 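Further: peak tail current of the secondary pulse compared with the same well before compound.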
# human ether-à-go-go-related gene (hERG) potassium channel, sequence (Q12809 whole entry, looked up): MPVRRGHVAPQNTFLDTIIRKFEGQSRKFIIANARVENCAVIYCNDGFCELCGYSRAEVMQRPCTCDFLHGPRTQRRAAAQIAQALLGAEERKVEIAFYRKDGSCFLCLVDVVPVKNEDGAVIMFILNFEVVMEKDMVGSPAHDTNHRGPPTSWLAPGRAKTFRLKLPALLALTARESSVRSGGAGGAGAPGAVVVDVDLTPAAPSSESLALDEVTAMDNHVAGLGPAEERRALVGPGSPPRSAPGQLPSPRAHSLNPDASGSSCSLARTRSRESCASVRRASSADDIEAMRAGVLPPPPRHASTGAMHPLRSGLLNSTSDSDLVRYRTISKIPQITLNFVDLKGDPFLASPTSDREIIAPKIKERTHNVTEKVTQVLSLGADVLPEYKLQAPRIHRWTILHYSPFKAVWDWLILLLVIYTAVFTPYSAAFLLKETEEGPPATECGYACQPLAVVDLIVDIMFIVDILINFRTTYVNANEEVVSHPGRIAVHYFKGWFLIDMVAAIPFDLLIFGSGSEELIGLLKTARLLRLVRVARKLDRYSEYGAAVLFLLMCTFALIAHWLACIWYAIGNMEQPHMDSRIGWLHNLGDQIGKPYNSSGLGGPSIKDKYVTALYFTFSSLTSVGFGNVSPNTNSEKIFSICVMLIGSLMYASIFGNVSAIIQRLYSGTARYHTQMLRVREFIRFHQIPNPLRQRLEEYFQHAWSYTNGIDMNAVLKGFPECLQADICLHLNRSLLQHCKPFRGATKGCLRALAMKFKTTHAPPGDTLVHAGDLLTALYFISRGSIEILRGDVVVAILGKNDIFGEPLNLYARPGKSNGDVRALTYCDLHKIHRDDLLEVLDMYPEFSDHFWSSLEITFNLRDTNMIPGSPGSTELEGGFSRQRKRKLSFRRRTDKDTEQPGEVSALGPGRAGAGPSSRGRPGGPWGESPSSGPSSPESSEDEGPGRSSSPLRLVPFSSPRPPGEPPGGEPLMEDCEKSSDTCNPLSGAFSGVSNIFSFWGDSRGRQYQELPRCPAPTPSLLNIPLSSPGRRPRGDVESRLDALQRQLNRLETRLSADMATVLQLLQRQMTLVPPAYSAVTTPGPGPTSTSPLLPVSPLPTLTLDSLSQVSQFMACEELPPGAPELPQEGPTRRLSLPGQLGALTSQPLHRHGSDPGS
row,SMILES,"hERG current change (%, negative = inhibition) at 10uM [%]"
1,COc1ccc(C(=O)NNS(=O)(=O)c2ccccc2)cc1OC,13.3
2,Cc1cc(C)cc(OCc2nnc(SCC(=O)OC3CCCCC3)o2)c1,1.89
3,O=C(CCNS(=O)(=O)c1ccc(Br)cc1)NCc1ccc(F)cc1,-4.89
4,COCCCNC(=O)CSC1=Nc2ccccc2C2=NC(Cc3c[nH]c4ccccc34)C(=O)N12 (stereo not shown),9.79
5,COc1cccc(C(C(=O)NC2CCCC2)N(Cc2cccnc2)C(=O)Cc2cccs2)c1 (stereo not shown),-5.67
6,O=C(Nc1nncs1)c1cccc(S(=O)(=O)N2CCCC2)c1,1.94
7,C=CCn1c(SC(C)C(=O)NC2(C#N)CCCCC2)nnc1-c1ccc(OC)cc1 (stereo not shown),-22
8,CCOC(=O)c1c(NC(=O)COC(=O)c2cnc(C)cn2)sc(C(=O)N(C)C)c1C,6.63
9,Cc1nnc(NC(=O)c2nn(CC(C)C)c(=O)c3ccccc23)s1,26.6
10,CC(=O)Nc1ccc(NC(=O)CSc2ncnn2-c2ccccc2)cc1,-2.05
11,Brc1ccc(Nc2ncnc3[nH]ncc23)cc1,-8.01
12,O=C(C1CCCN(Cc2cccs2)C1)N1CCCCCC1.O=C(O)C(=O)O (stereo not shown),-5.31
13,CCOC(=O)c1[nH]c2ccc(OC)cc2c1NC(=O)c1ccc2c(c1)OCO2,17.1
14,CC(C)CCOC(=O)C1[C@H]2C(=O)N(Cc3cccs3)C[C@]23C=C[C@H]1O3 (stereo partly shown),13.8
15,O=C(CN(C(=O)c1csnn1)c1cccc2c1CCCC2)NCc1ccc(F)cc1,-57.7
16,CCC/C=C1/CCCOC(C(=O)NCc2ccccn2)(C(F)(F)F)C1 (stereo not shown),-7.21
17,O=C(O)/C=C\C(=O)Nc1ccccc1C(=O)NCc1ccccc1,19.3
18,Cc1nc(-c2ccccc2)c(-c2ccccc2)[nH]1,-45.2
19,COc1ccc2oc(=O)c(C(=O)N3CCN(c4ccccc4F)CC3)cc2c1,-9.25
20,O=C(c1ccccc1)N(C(=O)c1ccccc1)c1ncnc2c1C(c1ccccc1)c1c(ccc3ccccc13)O2 (stereo not shown),0.221
21,O=C(N/N=C/c1cccs1)[C@H]1C[C@@H]1c1ccccc1,-7.99
22,CCOC(=O)c1cnc2ccc(F)cc2c1Nc1ccc2c(c1)OCCO2,-2.79
23,C/C(CC(=O)Nc1cc(C)cc(C)c1)=N\NC(=O)c1ccccn1,-2.5
24,Cc1csc(C(C)N(C)C(=O)c2ccc(OC3CCN(Cc4ccccn4)CC3)cc2)n1 (stereo not shown),-12
25,Cc1cccc(C(=O)N/C(=C\c2ccco2)C(=O)N2CCCC2)c1,-18.6
26,COc1ccc(NS(=O)(=O)c2cc3c(cc2C)N(C(C)=O)CCO3)c(OC)c1,0.0351
27,Cc1ccc(C(=O)OCC(=O)N(C)c2c(N)n(Cc3ccccc3)c(=O)[nH]c2=O)s1,-1.22
28,CC1(C)CC(=O)C2=C(C1)Oc1ncn(CCCn3ccnc3)c(=N)c1C2c1ccccc1 (stereo not shown),-53.3

row,SMILES,"hERG current change (%, negative = inhibition) at 10uM [%]"
1,Cc1ccc(S(=O)(=O)N2CCN(C(=O)c3ccco3)CC2)cc1C,-4.01
2,CCOC(=O)c1ccc2nc(NC(=O)C(C)C)sc2c1,-9.04
3,O=C(CSCSCC(=O)NCC1CCCO1)NCC1CCCO1 (stereo not shown),9.83
4,COc1cc(NC(=O)c2[nH]c(C)c(C(C)=O)c2C)cc(OC)c1OC,4.94
5,CC1(c2nnc(Cc3ccccc3)o2)CC(c2ccccc2)=NO1 (stereo not shown),-18
6,COc1ccccc1CC(NC(C)=O)C(=O)NC1CCN(C(=O)c2ccc(C)cc2)CC1 (stereo not shown),3.31
7,CCN(c1cccc(C)c1)S(=O)(=O)c1ccc2c(c1)CCCN2C(C)=O,-19.3
8,CCOC(=O)N1CCN(C(c2cccc(OC)c2)c2sc3nc(C)nn3c2O)CC1 (stereo not shown),3.01
9,O=C(c1nc2ccccn2c1CN1CCC(Cc2ccccc2)CC1)N1CCCC1,-70.7
10,COC(=O)c1ccccc1-n1c(CCC(=O)O)ccc1-c1ccccc1,0.715
11,Cc1ccc(CN2CCN(CC(=O)NCCCN3CCN(c4ccc(F)cc4)CC3)C2=O)cc1,-66
12,CCOC(=O)c1nnn(-c2nonc2N)c1CS(=O)(=O)c1ccccc1,-4.97
13,Oc1ccccc1CNc1cccc2cccnc12,8.2
14,C#CCNC(=O)c1cc2sccc2n1C,-4.02
15,O=C(CN(Cc1ccc(Br)cc1)S(=O)(=O)c1ccccc1)NCc1cccnc1,-17.2
16,Cc1cccc(N(Cc2cc3ccccc3[nH]c2=O)C(=O)c2ccco2)c1C,4.51
17,Cc1ccc2[nH]c(=O)c(CN(CCCN3CCOCC3)Cc3nnnn3C3CCCC3)cc2c1,-54.5
18,CC(=O)NC1=NN(C(C)=O)C(C)(CS(=O)(=O)c2ccc(Cl)cc2)S1 (stereo not shown),5.79
19,Cc1ccc(N(CC(=O)N/N=C/c2cccnc2)S(=O)(=O)c2ccccc2)cc1,-52
20,Cc1ccc2c(c1)NC(=O)C(CC(=O)NCCCN1CCCC1)O2 (stereo not shown),12.6
21,CS(=O)(=O)Nc1ccc(OCc2ccccc2)cc1,2.82
22,O=C(c1cc2ccccc2oc1=O)N1CCOCC1,6.33
23,O=C(COc1ccccc1)Nc1nc2c(s1)CCCC2,-20.3
24,Cl.O=C(NCCCNCc1ccccc1)c1ccncc1,-5.26
25,Cc1cc(/C=N/NC(=O)c2cccc([N+](=O)[O-])c2)c(C)n1-c1ccccc1,8.99
26,CCOC(=O)c1noc(C)c1C(=O)Nc1cccc(F)c1,-8.49
27,O=C(NCc1cccnc1)C1CC(=O)N(CCc2ccccc2)C1 (stereo not shown),-11.9
